Consider 56 variants from the RNAGym collection of RNA variant scans (doi:10.7554/elife.90254).

The source gives no read counts; variants with many changes may rest on few reads.

B1: LINE1-mini (parent)
chain: GGCAGAGCUCAACACAGCGUGGCAAAGUGGCUGUGGCUAGACUGCC

The variants in this series derive from B1. Put plainly: self-cleavage, relative activity (ratio to wild type); higher = more cleavage; in vitro, sequencing; the parent is a self-cleaving ribozyme.
On to GGCAGAGGUCAGCACAGCGUCGCAAAGUGGCUGUUGCUAGACUGCC [C8G A12G G21C G35U], for which the self-cleavage was 0.08.
Regarding GGCAGAGGUCAACACCGCGUGGCAAAGUGGCUGUGGCUAGACUCCC [C8G A16C G44C], the self-cleavage is 0.01.
For the variant GGCAGAGGUAAACACAGCGUGGCAAAGUGGCUGUGCCUAGACUGCC [C8G C10A G36C], the self-cleavage stood at 0.01.
For the variant GGCAGAGGUCAACACUGCGUCGCAAAGUGGCUGUGGCGAGACUGCC [C8G A16U G21C U38G], the self-cleavage is 0.01.
With GGCAGAGGUCAACACGGCGUGGCAAACGCGAUGGGGCUAGACUGCC [C8G A16G G27C U28G G29C C31A U34G], the self-cleavage stood at 0.
For GGCAGAGGUUAACACAGCGUGGCAAAGUGUCUGUGGCUAGACUGCC [C8G C10U G30U], the self-cleavage was found to be 0.05.
With GGCAGAGGUCAACUCAGCGUGGCGAAGUGGCUGUGGGUAGACAGCC [C8G A14U A24G C37G U43A], the self-cleavage worked out at 0.01.
On to GGCAGAGGUCAAUACAGCGUCGCAAAGUGGCUGUGGCUCGACUGCC [C8G C13U G21C A39C], for which the self-cleavage came out at 0.3.
On to GGCAGAGGUGAACACAGCGUGGUACAGUGGCUGUGGCUAUACUGCC [C8G C10G C23U A25C G40U], for which the self-cleavage was determined as 0.01.
In the case of GGCAGAGGUCAUCACAGCGUGGCAAAGUGGGUGUGGCUAGACUGCC [C8G A12U C31G], the self-cleavage was found to be 0.03.
In the case of GGCAGAGGUCAACUCAGCGCGGCAACGUGGCUGGGGCUAGACUGCC [C8G A14U U20C A26C U34G] it was 0; in that of GGCAGAGGUGACCACAGCGUGGCAAAGUGGCUGUGGCUAGACUGCC [C8G C10G A12C], 0.
For GGCAGAGGUAAACACAGCGUGGGAAAGUGGCUAUGGCUAGACUGCC [C8G C10A C23G G33A], the self-cleavage amounted to 0.01.
Turning to GGCAGAGGUCAACUCAGCGUGUCCAAGUGCCUAUGGCUAGACUGCC [C8G A14U G22U A24C G30C G33A], the self-cleavage came to 0.
In the case of GGCAGAGGUCAAGACAGCGUGGCAAAGUGGCUGUGACUAGACUGCC [C8G C13G G36A] it was 0.04; in that of GGCAGAGGUUAAUACAGUUUGGCGAAGUGGCUGUGGCUAGACUGCC [C8G C10U C13U C18U G19U A24G], 0.02.
As to GGCAGAGGUCAGCACAGCGUGGCAAAGUGGCUGUGGGUAGACUGCC [C8G A12G C37G], the self-cleavage was found to be 0.04.
On to GGCAGAGGUAAACACAGCGUGGCAAAGUGGUUUUGGCUAGAGUGAC [C8G C10A C31U G33U C42G C45A], for which the self-cleavage was 0.03.
On to GGCAGAGGUCAACGCGUCGUGGCAAAGAGUCUGAGGGUAGUCUGCC [C8G A14G A16G G17U U28A G30U U34A C37G A41U], for which the self-cleavage came out at 0.03.
Turning to GGCAGAGGUCAACACAGCGUGGCAAAGUGGCUGUGGCUAGUCUUCC [C8G A41U G44U], the self-cleavage is 0.3.
As for GGCAGAGGUCAAAAAAGAGUGGCAAAGUGGCUGGGGCUAGACUGCG [C8G C13A C15A C18A U34G C46G], the self-cleavage is 0.06.
Take GGCAGAGGUUAACACAGCGUGGCAUAGUGGCUGGAGCUAGACUGCC [C8G C10U A25U U34G G35A]: the self-cleavage turned out to be 0.01.
Regarding GGCAGAGGUAAACACACCGUUGCAAAGUGGCUGUGGCUAGACUGGA [C8G C10A G17C G21U C45G C46A], the self-cleavage was found to be 0.01.
Turning to GGCAGAGGUCAAGAAAGCGUGGCAAAGUAGCUGUAGCUCGACAGCU [C8G C13G C15A G29A G35A A39C U43A C46U], the self-cleavage was 0.05.
In the case of GGCAGAGGUCAAAACAUCGUGGCAAAUUUGAUUUGGCUAAACUGCC [C8G C13A G17U G27U G29U C31A G33U G40A], the self-cleavage stood at 0.01.
Consider GGCAGAGGUUAAGACAGCGUGGCAAAGUGGCUGUGGCUAGAAUGCA [C8G C10U C13G C42A C46A], for which the self-cleavage was 0.13.
Consider GGCAGAGGUAAACACAGCGUGGCAAGGUGGCUGUGGCUAGACUGCC [C8G C10A A26G], for which the self-cleavage is 0.01.
In the case of GGCAGAGGUAAACACAGCGUGGCAAUUUGGCUGUGGCUAGAUUGCC [C8G C10A A26U G27U C42U], the self-cleavage was 0.06.
As to GGCAGAGGUCAAGACAAUGUGGUAAAGUGGCUGUGGCUAGACUGUC [C8G C13G G17A C18U C23U C45U], the self-cleavage was 0.05.
Regarding GGCAGAGGUCAACACCGCGUUGCAAAGUGUCUGGGGCUAGACUGCC [C8G A16C G21U G30U U34G], the self-cleavage worked out at 0.
As for GGCAGAGGUCAUCUCAGCGUCGCAAAGUGGCUGUUGCUAGAAUGGC [C8G A12U A14U G21C G35U C42A C45G], the self-cleavage worked out at 0.03.
In the case of GGCAGAGGUCAACGCAGCGUCGCGAAGUGGCUGUGGCUAGACUUCC [C8G A14G G21C A24G G44U], the self-cleavage was 0.04.
Turning to GGCAGAGGUCAGCACAGCGUGGCAAAGUGGCUGUGGCUAGACCGCC [C8G A12G U43C], the self-cleavage turned out to be 0.02.
The result for GGCAGAGGUCAACACAGCGUGGCAAUGUGGCUGUGGCUAGACCGCC [C8G A26U U43C] reads 0.02.
In the case of GGCAGAGGUCAACACAGCGUGGCAAGGUGGCUAUGGCUAGACUGGC [C8G A26G G33A C45G], the self-cleavage stood at 0.02.
With GGCAGAGGUUAACACAGCGCGGCAAAGUGGCUGUGGCUAGACUGCC [C8G C10U U20C], the self-cleavage was determined as 0.07.
Turning to GGCAGAGGUUAACACAGCGGGGCAAAGUGGCUGUGGCUAGACUGCC [C8G C10U U20G], the self-cleavage came out at 0.04.
For GGCAGAGGUCAACUCAGCGUGGCAAAGUGGCUGUGGCUUGACUGCC [C8G A14U A39U], the self-cleavage stood at 0.1.
For the variant GGCAGAGGUCAACACAGCGUGGCAAUGUGGCGGUGUAUAUACUGCC [C8G A26U U32G G36U C37A G40U], the self-cleavage worked out at 0.15.
GGCAGAGGUCAACACAGCGUGGCAACGUGGCUGUCGCUAGACUGCC [C8G A26C G35C]: the self-cleavage was 0.
Turning to GGCAGAGGUAAACACAGCGUGGCAAAGUGGCUGUGGCUAAACUGCC [C8G C10A G40A], the self-cleavage was determined as 0.01.
Turning to GGCAGAGGUCAACACCGCGUAGCAAAAUGGCUGUGGCUAGACUGCC [C8G A16C G21A G27A], the self-cleavage came to 0.06.
Regarding GGCAGAGGUCAACACAGCGUGGCAGAGUGGCUGUGGCUAGACGGCC [C8G A25G U43G], the self-cleavage came to 0.28.
Take GGCAGAGGUCAACACCGCGUGGCAAAGUGGCUGUGGCUCGACUGCC [C8G A16C A39C]: the self-cleavage worked out at 0.
On to GGCAGAGGUCAACACGGCGUGGCAAAGUGGGUGUGGCUAGACUUCC [C8G A16G C31G G44U], for which the self-cleavage was 0.06.
As to GGCAGAGGUUCACACAGCGUGGCAAAGUGGCUGUGGCUAGACUGCC [C8G C10U A11C], the self-cleavage came to 0.05.
In the case of GGCAGAGGUCAACACCGCGUGGCAAAGUGGCUUUAUCUAGACCGCC [C8G A16C G33U G35A G36U U43C] it was 0; in that of GGCAGAGGUCAACACAGCGUGGCAAAGUGGCUGUGGCUUAACUGCC [C8G A39U G40A], 0.01; in that of GGCAGAGGUGAACACAGCGUGGCAAAGUGGGUGUGGCUAGACUGCC [C8G C10G C31G], 0.01.
In the case of GGCAGAGGUCAAAACAGCGUGGCAAAGUGGCGGUGGCUAGACUGCC [C8G C13A U32G], the self-cleavage worked out at 0.03.
As for GGCAGAGGUCAACACUUCGUGGCAAAGUGGCUGUGGCUGGACUGCC [C8G A16U G17U A39G], the self-cleavage stood at 0.02.
In the case of GGCAGAGGUUAACACAGCGUAGCAAAGUGGCUGUGACUAGACUGCC [C8G C10U G21A G36A], the self-cleavage came out at 2.33.
On to GGCAGAGGUCAUCACAGCAUGGCAAAGUGGCUGUGGCUAGACUGCC [C8G A12U G19A], for which the self-cleavage worked out at 0.01.
For the variant GGCAGAGGUCAACCCAGCAUGGCAAAGUGGUUGGGACUAGACUGCG [C8G A14C G19A C31U U34G G36A C46G], the self-cleavage is 0.01.
As to GGCAGAGGUGAACACAGCGUGGCAAAGUGGCUGCGGCUUGACUGCC [C8G C10G U34C A39U], the self-cleavage stood at 0.02.
As to GGCAGAGGUCAAGGCAGCGUGGCAAAGUGGCUGUGGCUAGACUGCC [C8G C13G A14G], the self-cleavage stood at 0.02.
